Data taken from paper PMC6919601, “Identification of Plasmodium dipeptidyl aminopeptidase allosteric inhibitors by high throughput screening” (PLoS ONE, 2019).
Out of some 110,000 compounds screened, about 230 (0.21%) showed an effect of 50% or more. This is one part of the list.

These compounds were tested against DPAP1 (Plasmodium falciparum, UniProt Q8IIJ9) (assay: primary screen, percent inhibition; read by cleavage of a fluorogenic dipeptide substrate; higher = more effect of the substance).
Parameters: species or system P. falciparum D10 trophozoite lysates; single well
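Further: 30 min substrate incubation versus DMSO and 10 µM JCP410 controls.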

Chain of DPAP1 (Q8IIJ9 whole entry, looked up): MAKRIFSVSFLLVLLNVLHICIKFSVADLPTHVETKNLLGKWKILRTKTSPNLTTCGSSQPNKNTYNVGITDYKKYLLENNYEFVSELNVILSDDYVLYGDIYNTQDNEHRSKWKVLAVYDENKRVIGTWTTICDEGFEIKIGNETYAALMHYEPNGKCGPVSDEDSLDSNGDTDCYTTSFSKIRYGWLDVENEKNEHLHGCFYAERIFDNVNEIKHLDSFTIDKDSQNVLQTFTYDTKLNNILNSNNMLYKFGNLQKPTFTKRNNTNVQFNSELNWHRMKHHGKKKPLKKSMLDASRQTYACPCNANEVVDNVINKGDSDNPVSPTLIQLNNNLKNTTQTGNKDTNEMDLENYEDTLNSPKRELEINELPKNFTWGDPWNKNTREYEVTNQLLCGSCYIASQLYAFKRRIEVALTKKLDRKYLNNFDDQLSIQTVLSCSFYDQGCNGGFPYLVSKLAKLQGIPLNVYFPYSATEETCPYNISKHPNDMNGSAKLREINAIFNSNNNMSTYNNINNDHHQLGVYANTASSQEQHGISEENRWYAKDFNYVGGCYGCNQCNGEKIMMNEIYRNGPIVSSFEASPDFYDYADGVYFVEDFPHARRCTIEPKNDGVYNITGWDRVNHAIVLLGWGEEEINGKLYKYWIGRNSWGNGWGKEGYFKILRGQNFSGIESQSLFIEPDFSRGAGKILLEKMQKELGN

Row | SMILES | % Inhibition @ 10 uM [%]
1 | COc1ccc(CCNC(=O)CN2C(=O)c3ccccc3C2=O)cc1 | 1.33
2 | O=C(CN1C(=O)C2CCCCC2C1=O)Nn1cnnc1 (centres unmarked) | 3.27
3 | O=C(c1ccc(N2CCOCC2)cc1)c1cc(C(=O)N2CCOCC2)ccc1-c1ccc(Br)cc1 | -2.12
4 | CCOc1ccc(C(=O)N2Cc3cc(OC)c(OC)cc3C3(CCCC3)C2)cc1OC | -1.72
5 | OC1(c2ccc(Br)cc2)CCN(Cc2cccc(Br)c2)CC1 | -8.55
6 | Cc1cc(C)c(S(=O)(=O)NCC2CCC(C(=O)N3CCCC3)CC2)c(C)c1 (centres unmarked) | -0.971
7 | CCCCOc1ccc(-c2ncc(C(=O)OCC)c(N)n2)cc1 | -2.12
8 | CCN(CC)CCCN(C)C(=O)Cn1ncc2c3ccccc3nc-2c1O | 1.93
9 | O=C(NCCc1ccccc1)c1c2c(nc3ccccc13)CCCC2 | -7.85
10 | CCC(C)Nc1nc2c(c(=O)n(C)c(=O)n2C)n1Cc1ccccc1 (centres unmarked) | -1.6
11 | COc1ccc(N(CC(=O)N2CCCCCC2)S(=O)(=O)c2ccccc2)cc1Cl | -0.251
12 | C=CCSc1ncc(Cl)c(C(=O)Nc2sc3c(c2C(=O)NCC)CCCC3)n1 | -4.54
13 | CCCCN(CCCC)CCNC(=O)Cn1nc(-c2ccccc2)ccc1=O | 0.514
14 | Cn1c(=S)[nH]c2c(c1=O)C1(CCCC1)Cc1ccccc1-2 | -4.15
15 | COC(=O)c1ccc2c(O)c(S(=O)(=O)c3ccc(OC)cc3)c(O)nc2c1 | -0.326
16 | Cc1nnc2c(SCc3ccccc3)nc3ccccc3n12 | -0.0709
17 | CCOc1cccc(C2C(C(=O)OC)=CN(Cc3ccc(OC)cc3)C=C2C(=O)OC)c1 | -1.69
18 | CCN1CCN(Cc2cc(C(C)(C)C)c(O)c(C(C)(C)C)c2)CC1 | 1.63
19 | CCCCCc1nc(N)c(C#N)c(-c2ccccc2)c1CCCC | -5.9
20 | N#CCNC(=O)c1ccc([N+](=O)[O-])cc1C(=O)N1CCOCC1 | -6.98
21 | COC(=O)c1ccc2c(c1)C(=O)/C(=C/c1ccc(OCC(C)C)c(OC)c1)O2 | -3.08
22 | COCC(O)CSc1nc2ccccc2o1 (centres unmarked) | -3.04
23 | O=C(Nc1ccccc1)Nc1ccccc1Cl | -3.72
24 | COc1ccc(N2C(=O)NC(NC(=O)c3ccc(F)cc3)(C(F)(F)F)C2=O)cc1 (centres unmarked) | 0.189
25 | Cc1ccc(-c2c(C(=O)N3CCC(N4CCCCC4)CC3)oc(=O)c3ccccc23)cc1 | 1.9
26 | Cc1cccc(C(=O)Nc2ccc(F)cc2)n1 | 5.29

Row | SMILES | % Inhibition @ 10 uM [%]
27 | CN(C)CC(C)(C)CNC1CC2CCC(C1)N2C (centres unmarked) | -0.0953
28 | COc1ccc(OC)c(N/C=C/C(=O)c2ccc(C)cc2)c1 | 6.78
29 | CN(Cc1ccccc1)c1nnc(N)s1 | 1.42
30 | CCOC(=O)c1c(C)oc2nc(C)nc(N3CCN(C(=O)c4ccco4)CC3)c12 | -1.43
31 | CC(C)(C)OC(=O)N[C@@H](Cc1cc(Cl)c(O)c(Cl)c1)C(=O)NCC#N | -6.46
32 | CN(C)CCNC(=O)C12CC3(C)CC(C)(CC(C)(C3)C1)C2 | 1.54
33 | O=C(CC(=O)c1ccccc1O)c1ccco1 | 1.52
34 | COc1ccc(C2CC(=O)NC(SCC(N)=O)=C2C#N)cc1OC (centres unmarked) | -7.3
35 | Cc1ccc(S(=O)(=O)NCCc2nnc3ccc(SCC(N)=O)nn23)cc1 | -1.97
36 | CCOC(=O)C1=CN(C(C)C)C=C(C(=O)OCC)C1c1cc(Br)c(OC)c(OC)c1 | -8.88
37 | Cc1cc(N2C(=O)CC(N3CCC(c4nc5ccccc5s4)CC3)C2=O)no1 (centres unmarked) | -1.24
38 | NC(=O)C1CCN(c2c(S(=O)(=O)c3ccccc3)cnc3cc4c(cc23)OCCO4)CC1 | -0.883
39 | COc1ccc(C2OC(c3ccc(Cl)cc3)=NN2C(C)=O)cc1 (centres unmarked) | -3.74
40 | COC(C(=O)Nc1ccc(Cl)cn1)c1ccccc1 (centres unmarked) | 3.81
41 | c1ccc(Nc2nc(N3CCCCC3)nc(N3CCCCC3)n2)cc1 | 7.96
42 | CC(C)C[C@H](NC(=O)c1cccc(B(O)O)c1)C(=O)NCC#N | -5.2
43 | COc1c(Cl)cc(Cl)cc1C(=O)Nc1ccc(C)cc1 | 0.716
44 | CC(C)Oc1ccc(NCC(=O)Nc2ccc(F)cc2)cc1 | 0.964
45 | COc1ccc(C(=O)N/C(=C\c2ccc3c(c2)OCO3)C(=O)NCc2ccco2)cc1 | -4.49
46 | O=C(Nc1ccc(I)cc1)c1cccc(F)c1 | 3
47 | CCC(Oc1ccccc1)C(=O)Nc1cc(OC)c(Cl)cc1OC (centres unmarked) | -4.59
48 | O=C(CCN1C(=O)c2ccccc2Sc2ncccc21)NCCc1ccc(Cl)cc1 | 2.06
49 | O=C(CCc1nc2ncccc2c(=O)n1Cc1ccc(F)cc1)N1CCc2ccccc2C1 | 0.953
50 | O=C(Cn1c2c(c(-c3ccccc3Cl)cc1=O)CCC2)NCc1ccc2c(c1)OCO2 | 0.718
51 | CCc1ccc(CNC(=O)c2cc(O)nc3ccccc23)cc1 | -4.97
52 | Cc1nnc(SCC(=O)NCCCc2ccccc2)c2nn(-c3ccccc3)c(C)c12 | -3.24

Row | SMILES | % Inhibition @ 10 uM [%]
53 | CCc1c(O)n(-c2ccccc2)c(SC)nc1=O | -0.292
54 | O=C(CCN1C(=O)c2ccccc2C1=O)N1CCN(Cc2ccccc2)CC1 | -3.9
55 | O=C(Nc1sc2c(c1C(=O)NCC1CCCO1)CCCC2)c1cccs1 (centres unmarked) | 2.69
56 | COCCN1C(=O)c2[nH]nc(-c3ccccc3O)c2C1c1ccccc1 (centres unmarked) | -1.35
57 | CC1CCCCN1C(=O)CSc1nc2cccnc2[nH]1 (centres unmarked) | 1.63
58 | NC(=O)c1c(NC(=O)COc2ccc(Cl)cc2Br)sc2c1CCCC2 | 1.08
59 | COc1ccc(C)cc1-n1c(C)cc(/C=C2/C(=N)N3C=CSC3=NC2=O)c1C | -4.84
60 | COc1ccc(/C=C/C(=O)CC(=O)c2ccccc2O)cc1 | 3.16
61 | Cc1ccc(-c2cc(C(F)F)nc(NCc3ccccc3)n2)cc1 | 1.85
62 | O=C1NC(=S)N/C1=C/c1ccc2c(c1)OCO2 | 4.07
63 | COc1cc(C2C3=C(O)CCCC3=NC(C)=C2C(=O)OC(C)C)cc(Br)c1O (centres unmarked) | 2.45
64 | COc1ccc(Cl)cc1-n1c(C)cc(/C=C2/C(=N)N3OC(C)=CC3=NC2=O)c1C | 0.317
65 | Cc1cc(C)cc(NC(=O)c2cc(C)nn2C)c1 | -13.3
66 | O=C(NC1CCCCC1)C1CC1c1ccccc1 (centres unmarked) | -7.34
67 | O=C(O)CCC(=O)Nc1ccccc1C(=O)Nc1cccc(Cl)c1 | 0.795
68 | Cc1ccsc1CN1CCN(C)CC1 | -3.71
69 | COc1ccc(-c2noc(CC(=O)N3CCN(C4CCCCC4)CC3)n2)cc1 | 4.84
70 | O=C(Cn1cnc2c(nnn2Cc2ccc(F)cc2)c1=O)N1CCOCC1 | -2.16
71 | O=C(O)CC(NC(=O)COc1ccccc1)c1ccc(Cl)cc1 (centres unmarked) | 1.03
72 | CC1CCCN(C(=O)C2CCN(c3ncnc4c3nc3n4CCCCC3)CC2)C1 (centres unmarked) | 3.5
73 | Cc1ccc(N2C(=O)c3ccccc3NC2c2ccc3c(c2)OCO3)cc1 (centres unmarked) | 3.67
74 | CC(C)C[C@H](NC(=O)OCc1ccc(CO)cc1)C(=O)NCC#N | 1.71
75 | COC(=O)Nc1ccc(NC(C)=O)cc1 | 27.3
76 | Cc1nc(SCC(=O)N2CCC(C)CC2)c(C#N)c(C)c1C | -8.98
77 | O=C(Nc1cccc2ccccc12)OC1CCS(=O)(=O)C1 (centres unmarked) | -1.69
78 | CC1=NN(C(N)=S)C(O)(c2ccccc2)C1 (centres unmarked) | -1.59

Row | SMILES | % Inhibition @ 10 uM [%]
79 | COc1cc(OC)cc(-c2nc3n(n2)C(c2cc(OC)ccc2OC)C(C(N)=O)=C(C)N3)c1 (centres unmarked) | -1.47
80 | COc1ccccc1C(=O)Nc1ccc(F)cc1 | 3.53
81 | CCOCCCN(Cc1ccco1)C(=O)c1cc2c(s1)-c1ccccc1OC2 | -10.5
82 | O=C(CCSCCC(=O)Nc1cccc(F)c1)Nc1cccc(F)c1 | 0.331
83 | Cc1cc(O)n2nc(NC(=O)c3cccnc3)nc2n1 | -1.31
84 | COCCNC(=O)c1ccc(-n2c(-c3ccccc3)nc3cccnc32)cc1 | 1.14
85 | COc1ccc(C(=O)Nc2cc(Cl)c(O)c(Cl)c2)cc1OC | -0.884
86 | N#Cc1nc(-c2ccccc2)oc1NCC1CCCO1 (centres unmarked) | 0.487
87 | CCCCOC(=O)c1ccc(NC(=O)c2ccc(Cl)cc2Cl)cc1 | 1.48
88 | O=C1CCN(S(=O)(=O)c2ccccc2)c2c1ccc1ccccc21 | -1.38
89 | O=C(c1cccc2c1C(=O)N(Cc1c(F)cccc1Cl)C2)N1CCOCC1 | 0.895
90 | COc1ccc(C(=O)Nc2nccs2)c(OC)c1 | -3.35
91 | O=C(NC1CCCCC1)C1CC(=O)N(c2ccccc2)C1 (centres unmarked) | 0.983
92 | O=C1N=C(N2CCOCC2)S/C1=C\c1cn(-c2ccccc2)nc1-c1cc2ccccc2o1 | 3.87
93 | CCc1ccc(-c2nc(CSCC(=O)NCCc3ccccc3)c(C)o2)cc1 | 2.37
94 | COc1ccc(OC)c(NC(=O)CN(c2ccccc2)S(=O)(=O)c2ccccc2)c1 | 6.79
95 | CN(Cc1ccccc1)C(=O)Cn1c(=O)c2cccn2c2cccnc21 | 5.68
96 | COc1ccc(-c2cc(C(F)F)n3ncc(C(=O)N4CCc5ccccc5C4)c3n2)cc1 | -3.05
97 | CC(C)CC(=O)NS(=O)(=O)c1ccc(NC(=O)C2CCCCC2)cc1 | 2.02
98 | COc1ccc(Nc2ccccc2)c(C)c1 | 1.38
99 | COc1ccc(C(=O)O)cc1-c1ccc(C(=O)N[C@@H](CC(C)C)C(=O)NCC#N)cc1 | -1.82
100 | c1ccc(CNc2ccc(CNc3nc[nH]n3)cc2)cc1 | 1.84
101 | COCCn1c(=N)c(S(=O)(=O)c2ccc(C)cc2)cc2c(=O)n3ccccc3nc21 | -0.994
